According to PubChem BioAssay AID485344 (National Center for Advancing Translational Sciences (NCATS), 2010):
About 6,900 (2%) of roughly 340,000 compounds were called active. Cut-off read from the data, not from the text of the source: active = inhibition above about 30%; inactive = below that, where a call was filed. The entries are a selection whose mix differs from that of the whole data set. Where no call is shown, the source filed none.

Target: D(2) dopamine receptor (Homo sapiens) (UniProt P14416)
Assay: HTS Assay for Allosteric Antagonists of the Human D2 Dopamine Receptor: Primary Screen for Antagonists; note: 0% is about no effect
Details: HEK293 TREx D2 cells, calcium flux, dopamine EC80; at 10 µM; stronger effect = higher value
Summary of the method: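 In this primary screen, negative modulation is detected by tracking calcium flux after an EC80 dopamine challenge in inducible HEK293 T-REx D2 cells preexposed to test compound for 180 s.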

UniProt P14416, sequence (P14416 whole entry, looked up): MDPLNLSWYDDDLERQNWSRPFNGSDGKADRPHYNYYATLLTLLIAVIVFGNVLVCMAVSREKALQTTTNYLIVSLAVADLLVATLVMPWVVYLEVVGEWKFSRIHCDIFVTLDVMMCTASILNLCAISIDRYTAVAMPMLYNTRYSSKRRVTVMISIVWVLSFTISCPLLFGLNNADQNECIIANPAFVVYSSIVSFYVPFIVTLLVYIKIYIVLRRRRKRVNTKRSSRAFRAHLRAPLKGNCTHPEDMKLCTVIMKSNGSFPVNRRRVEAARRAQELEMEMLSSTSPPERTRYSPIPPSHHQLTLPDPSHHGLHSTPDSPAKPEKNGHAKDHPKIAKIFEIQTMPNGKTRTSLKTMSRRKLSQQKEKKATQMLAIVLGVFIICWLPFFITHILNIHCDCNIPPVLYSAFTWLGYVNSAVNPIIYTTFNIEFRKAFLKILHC

Row | SMILES | inhibition
1 | O=C(c1cccs1)N1CCN(Cc2cn[nH]c2-c2ccc(F)cc2F)CC1 | active: 52.9%
2 | O=C(Nc1c(C(=O)N2CCN(c3ccccc3)CC2)oc2ccccc12)c1ccccc1F | 8.77%
3 | Cc1cccc(N(C)C(=O)c2cc3c(=O)oc4ccc(C)cc4c3s2)c1 | -3.15%
4 | Cc1ccc(NC(=O)C2CCCN(c3ncnc4c3nc3n4CCCCC3)C2)cc1Cl (stereo not drawn) | active: 33.1%
5 | CCOc1ccc(-n2nc3ccc(NC(=O)c4ccc(C)cc4C)cc3n2)cc1 | 7.98%
6 | Cc1ccc(CCNC(=O)c2cc3cc(S(=O)(=O)N4CCCCC4)ccc3n2C)cc1 | 14.2%
7 | COc1ccc(OC)c(NC(=O)Cn2c(CCC(=O)O)ccc2-c2ccccc2)c1 | 9.49%
8 | CCn1nnnc1-c1ccc(OC)c(S(=O)(=O)NCc2ccccc2)c1 | active: 33.1%
9 | Cc1cccc(C)c1NC(=O)Cn1c(=O)cc(C)c2c(C)nn(-c3cccc(Cl)c3C)c21 | 2.35%
10 | COc1ccc(Cl)cc1NC(=O)c1sc2nc3c(cc2c1N)CN(C)CC3 | 5.85%
11 | O=C(CCC1N=C2c3ccccc3N=C(SCc3ccc(Cl)cc3)N2C1=O)NC1CCCCC1 (stereo not drawn) | 4.87%
12 | CCOc1ccccc1NC(=O)Cn1c(=O)n(Cc2ccccc2)c(=O)c2c3c(sc21)CN(C(C)=O)CC3 | 9.6%
13 | Cc1ccc(-n2ncc3c(N4CCCCC4)ncnc32)cc1 | 6.81%
14 | CCOCc1c(C(=O)N2CCN(Cc3ccc(Br)s3)CC2)oc2ccccc12 | active: 32.1%
15 | O=C(CN1CCN(C2CCCCC2)C(=O)C1=O)Nc1ccc(Cl)cc1 | 1.25%
16 | COc1ccc(NC(=O)CC(C)S(=O)(=O)c2ccc3c(c2)NC(=O)CO3)cc1OC (stereo not drawn) | -15.5%
17 | O=C(Nc1cccc(Cl)c1)c1cc(S(=O)(=O)N2CCC3(CC2)OCCO3)ccc1F | 22.1%
18 | CCN(CCCNC(=O)Cn1ncc2c3ccccc3n(C)c2c1=O)c1cccc(C)c1 | -5.89%
19 | COc1cc(OC)c(NC(=O)Cn2cnc3c(nc4n3CCCCC4)c2=O)cc1Cl | 11.7%
20 | Cc1cc(OCC(=O)Nc2nc3c(s2)CCCC3)cc(C)c1Cl | 1.63%
21 | O=C(Nc1ccnn1C1CCN(CCCc2ccccc2)CC1)c1ccccc1Cl | active: 87.7%
22 | CCOC(=O)c1ccccc1NC(=O)COc1cc(=O)n(CC)c2ccccc12 | -3.24%
23 | CCOC(=O)c1cc2c(=O)n3ccccc3nc2n(Cc2ccco2)c1=NC(=O)c1ccc(F)cc1 | -1.09%
24 | O=C(CCCn1c(=O)[nH]c2ccccc2c1=O)N1CCN(c2ccccc2)CC1 | 7.15%
25 | O=C(CN1C(=O)COc2ccc(S(=O)(=O)N3CCOCC3)cc21)N1CCN(c2ccc(Cl)cc2)CC1 | 13.1%

Row | SMILES | inhibition
26 | O=S(=O)(NCCc1cn2ccsc2n1)c1ccc(Cl)cc1 | 1.27%
27 | CC1=C(c2ccc(C)cc2)S(=O)(=O)N(Cc2ccc(C(=O)NCc3ccccc3F)cc2)C1=O | -13.1%
28 | Cc1[nH]nc2c1C(c1cccs1)C1=C(CC(C)(C)CC1=O)N2 (stereo not drawn) | active: 30.2%
29 | Cc1ccc(C(=O)c2sc(Nc3ccc(F)cc3)nc2N)c(C)c1 | 11.6%
30 | O=C1CCCc2[nH]c(=O)c(-c3nc(-c4cccc([N+](=O)[O-])c4)cs3)cc21 | 4.89%
31 | CC(=O)c1ccc(NC(=O)Cn2c(=O)oc3cc(S(=O)(=O)N4CCCCC4)ccc32)cc1 | 7.12%
32 | COc1ccc(-c2nc(CNC(=O)NC3CCCCC3)c(C)o2)c(OC)c1 | 4.86%
33 | Cc1ccc2c(c1)C(C)(c1ccccc1)CC(C)(C)N2C(=O)c1ccc(F)cc1 (stereo not drawn) | -3.36%
34 | O=C(NC(=S)N1CCN(Cc2ccccc2)CC1)c1ccccc1 | active: 31.2%
35 | Cc1ccc(NC(=O)CN2C(=O)C(c3ccc(F)cc3)=NC2(C)C)c(C)c1 | 10.9%
36 | Cc1cccc(C(=O)Nc2sc3c(c2C(=O)Nc2ccccc2)CCC3)c1 | 1.71%
37 | CCOc1ccccc1NC(=O)C(=O)NCC(c1cccnc1)N1CCN(c2ccccc2)CC1 (stereo not drawn) | -5.76%
38 | C=CCOc1ccc(/C=C/C(=O)OCC(=O)NC2CCCCCCC2)cc1 | active: 42.6%
39 | COC(=O)c1c(SC)nc2ccccc2c1OCc1cc(C)ccc1C | 14.2%
40 | Cc1ccc(CNC(=O)c2ccc(NC(=O)c3nsc4ccccc34)cc2)cc1 | -2.4%
41 | CC(C)CC(OC(=O)c1nsc(Cl)c1Cl)C(=O)NC1CCCC1 (stereo not drawn) | active: 68.8%
42 | CCCOc1ccc(CNC(=O)c2cc3oc4ccccc4c3n2C)cc1 | -1.53%
43 | CCOc1ccc(CN(C)CC(O)COC(c2ccc(OC)cc2)c2ccc(OC)cc2)cc1 (stereo not drawn) | active: 30.3%
44 | O=C(CSc1nc(-c2cccs2)cc(C(F)(F)F)n1)Nc1ccccc1Cl | -0.688%
45 | O=C(c1ccc(F)cc1)C1CCN(C(=S)Nc2ccc(F)cc2)CC1 | active: 47.5%
46 | O=C(Nc1ccc2nc(SCC(=O)N3CCc4ccccc43)sc2c1)c1ccc(Cl)cc1 | -22.8%
47 | CCC(=O)C1=C(c2ccccc2)N(C(=O)CC)n2c(nnc2C2CCCCC2)S1 | -22.8%
48 | O=C(Nc1ccccc1[N+](=O)[O-])c1csnn1 | -0.586%
49 | Cc1ccc(C)c(Oc2c(C(F)(F)F)oc3c(CN4CCN(C)CC4)c(O)ccc3c2=O)c1 | -3.44%
50 | COc1ccc(C)cc1NC(=O)Cc1ccc(NC(=O)N2CCCCc3ccccc32)cc1 | 9.02%

Row | SMILES | inhibition
51 | Cc1ccc2nc(NCCc3ccc(Cl)cc3)c3nncn3c2c1 | 14.9%
52 | CC(C)c1ccc(Nc2c(-c3ccsc3)nc3ccc(Cl)cn23)cc1 | -4.6%
53 | CC/C(=N\NC(N)=O)c1ccc(OC)c(OC)c1 | active: 38.5%
54 | COc1ccc(NC(=O)C2(c3ccc(NC(=O)c4ccc(C)cc4)cc3)CCCC2)cc1 | active: 34.2%
55 | CCn1cc(C(=O)NCc2ccccc2Cl)c(=O)c2cc(S(=O)(=O)N3CCOCC3)ccc21 | 13.9%
56 | CCCCC(=O)Nc1cccc(-c2nc3ccccc3s2)c1 | 8.24%
57 | COc1ccc(CCNC(=O)C(=O)Nc2ccc(C)c(C)c2)cc1OC | 27.9%
58 | Cc1cccc(-n2ccnc2SCC(=O)Nc2cc(C(F)(F)F)ccc2Cl)c1 | -20.7%
59 | CCCCN(C)CC(O)Cn1cc(/C=C/C(=O)c2ccc(OCC)cc2)c2ccccc21 (stereo not drawn) | -2.1%
60 | CCOC(=O)c1[nH]c(C)c(C(=O)NCCc2ccccc2)c1C | 21%
61 | CN(c1ccc(Cl)cc1)S(=O)(=O)c1nnc(NC(=O)c2ccco2)s1 | -28.2%
62 | CCc1ccc(NC(=O)c2cc(CN3CCOCC3)on2)cc1 | 4.52%
63 | CCOc1ccccc1NC(=O)CCS(=O)(=O)c1ccc(OC)cc1 | 2.6%
64 | O=C(O)CCC(=O)CCC(=O)c1ccccc1 | active: 34.6%
65 | Nc1cc(C(F)(F)F)ccc1Nc1ccccc1 | active: 67.1%
66 | O=C(CCn1c(=O)c2ccccc2n(Cc2ccc(Cl)cc2)c1=O)NCc1ccc2c(c1)OCO2 | -10.1%
67 | Cc1ccc(CNC(=O)c2ccc(CSCc3c(F)cccc3Cl)o2)cc1 | 4.02%
68 | CCOc1ccc(/C=C/c2nc(C#N)c(N3CCCCCC3)o2)cc1 | 2.97%
69 | Cc1cc(C)n2nc(CNS(=O)(=O)c3ccc(F)cc3)nc2n1 | 10.3%
70 | COc1ccccc1NC(=O)N1CCOc2ccccc21 | 2.81%
71 | COc1ccccc1NC(=O)Cn1c(=O)n(Cc2nc(C)no2)c(=O)c2cc3c(cc21)OCO3 | 9.38%
72 | CN1CCc2c(sc(/N=C/c3cc(Cl)ccc3O)c2C#N)C1 | active: 83.3%
73 | CCCN(CCC)CCNC(=O)Cn1cnc2sc(C)c(S(=O)(=O)N3CCN(c4ccccc4OC)CC3)c2c1=O | -10.8%
74 | COC(=O)c1cc2oc3ccccc3c2n1CC(=O)Nc1ccc(C)cc1Cl | 8.37%
75 | CCn1c(C(=O)NCc2ccccc2)cc2sc(Cl)cc21 | -6.07%

Row | SMILES | inhibition
76 | COc1cccc(CNC(=O)c2ccc(CN3CC(=O)N4CCCCC4C3=O)cc2)c1 (stereo not drawn) | 10.6%
77 | O=C(NCc1ccc(F)cc1Cl)c1ccc(CSCc2ccccc2Cl)o1 | 7.12%
78 | CC(C)CCn1c(=O)c2sccc2n2c(CCCC(=O)Nc3ccc(F)c(Cl)c3)nnc12 | -2.76%
79 | Cc1ccc(NC(=O)c2cc(-c3cccs3)nc3ccccc23)c(C)c1 | -0.394%
80 | Cc1ccc(N2CCN(C(=O)Nc3cn(CC(C)C)c(=O)c4ccccc34)CC2)c(C)c1 | -2.06%
81 | Cc1cccc(N2CCN(C(=O)c3ccc4c(c3)N(Cc3cccc(Cl)c3)C(=O)c3ccccc3S4=O)CC2)c1C (stereo not drawn) | 3.51%
82 | Cc1ccc(-c2nc(SCC(=O)Nc3cc(C)on3)c3c(=O)n(C)c(=O)n(C)c3n2)cc1 | 14.6%
83 | O=C(CC(=O)Nc1ccccc1F)Nc1ccc2nc3n(c(=O)c2c1)CCCCC3 | 9.4%
84 | CCOC(=O)C1=CCN(Cc2ccccc2)CC1 | active: 101%
85 | COc1ccccc1NC(=O)c1c(NC(=O)c2cccs2)sc2c1CCC(C(C)(C)C)C2 (stereo not drawn) | -16.6%
86 | CCCCCNc1nc2c(-c3ccccc3)nnn2c2ccccc12 | -10.9%
87 | CCc1ccc(OC(=O)c2sc3ncn(Cc4cccc(F)c4)c(=O)c3c2C)cc1 | -9.01%
88 | Cc1nc(=O)c(-c2ccccc2)c(C)n1-c1cccc(C(=O)O)c1 | active: 31.3%
89 | CCCOc1ccc(Cn2c(=O)sc3ccccc32)cc1 | -3.63%
90 | CCc1ccccc1NC(=O)COC(=O)c1cn(CC)c2nc(C)ccc2c1=O | 1.89%
91 | CCCCOC(=O)c1ccc(Nc2nc3ccc(C)cc3n3cnnc23)cc1 | -10.6%
92 | O=C(Nc1cc(Cl)ccc1O)c1cc2nc(-c3ccc4c(c3)OCO4)cc(C(F)(F)F)n2n1 | 10.6%
93 | Cc1ccc(CCNC(=O)C2CCCN(S(=O)(=O)c3ccc4c(c3)oc(=O)n4C)C2)cc1 (stereo not drawn) | -11.9%
94 | O=C(COc1ccc(F)cc1)OCc1cc(=O)n2nc(C3CC3)sc2n1 | 2.71%
95 | CCc1ccc(C(=O)c2cn(Cc3ccccc3)c3cc(OC)c(OC)cc3c2=O)cc1 | -15.1%
96 | CCc1ccc(-n2nc(C)c3c(C)cc(=O)n(CC(=O)N(CC)Cc4ccccc4)c32)cc1 | 6.23%
97 | Oc1c(C(c2ccc(Cl)cc2Cl)N2CCCC2)sc2nc(-c3ccco3)nn12 (stereo not drawn) | -12.5%
98 | CCOc1ccc(C(CC(=O)Nc2ccc(C(=O)OC)cc2)N2Cc3ccccc3C2=O)cc1OC (stereo not drawn) | 5.28%
